From paper PMC4336329 (PLoS ONE, 2015)
Out of some 310,000 compounds screened, about 14,000 (4.5%) showed an effect of 50% or more. Effects have a minus sign here. The list shows a part of the results.

Molecular target: human ether-à-go-go-related gene (hERG) potassium channel (human, UniProt Q12809)
Assay: primary screen, population patch clamp on CHO cells stably expressing hERG
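Further: peak tail current of the secondary pulse compared with the same well before compound.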

Sequence of human ether-à-go-go-related gene (hERG) potassium channel (Q12809 whole entry, looked up): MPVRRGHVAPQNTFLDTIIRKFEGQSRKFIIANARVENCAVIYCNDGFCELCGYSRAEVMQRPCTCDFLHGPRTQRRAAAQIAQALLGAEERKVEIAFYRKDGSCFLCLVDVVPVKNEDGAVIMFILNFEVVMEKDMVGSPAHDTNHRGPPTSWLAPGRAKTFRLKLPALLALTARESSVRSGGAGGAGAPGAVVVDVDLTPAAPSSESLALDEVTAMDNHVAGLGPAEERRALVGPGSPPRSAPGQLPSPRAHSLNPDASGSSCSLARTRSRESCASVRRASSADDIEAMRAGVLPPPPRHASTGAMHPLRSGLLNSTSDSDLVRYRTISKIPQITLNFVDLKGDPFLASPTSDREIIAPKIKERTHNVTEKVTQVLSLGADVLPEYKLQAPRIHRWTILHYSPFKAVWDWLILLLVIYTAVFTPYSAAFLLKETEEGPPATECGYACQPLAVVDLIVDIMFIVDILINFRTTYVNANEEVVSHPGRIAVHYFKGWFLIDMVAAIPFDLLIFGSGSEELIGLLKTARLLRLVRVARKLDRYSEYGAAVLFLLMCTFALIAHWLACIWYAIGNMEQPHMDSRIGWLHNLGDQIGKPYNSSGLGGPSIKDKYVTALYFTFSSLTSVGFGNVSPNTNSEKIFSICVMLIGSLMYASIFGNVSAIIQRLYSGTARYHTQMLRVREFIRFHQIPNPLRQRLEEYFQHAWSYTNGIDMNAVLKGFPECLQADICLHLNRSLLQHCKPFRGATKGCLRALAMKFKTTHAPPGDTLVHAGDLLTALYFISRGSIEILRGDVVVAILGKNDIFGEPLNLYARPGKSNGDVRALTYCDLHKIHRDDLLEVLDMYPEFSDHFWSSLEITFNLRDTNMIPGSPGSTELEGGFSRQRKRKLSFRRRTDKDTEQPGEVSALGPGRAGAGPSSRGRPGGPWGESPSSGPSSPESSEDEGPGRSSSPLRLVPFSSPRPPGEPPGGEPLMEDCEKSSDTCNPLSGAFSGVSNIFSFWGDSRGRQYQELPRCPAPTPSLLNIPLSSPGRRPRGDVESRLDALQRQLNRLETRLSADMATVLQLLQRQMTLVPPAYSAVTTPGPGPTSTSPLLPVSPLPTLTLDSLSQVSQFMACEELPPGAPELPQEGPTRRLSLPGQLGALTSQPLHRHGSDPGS

| SMILES | hERG current change (%, negative = inhibition) at 10uM |
| --- | --- |
| COc1cccc(/C=C2\SC(=S)N(NS(=O)(=O)c3ccc(C)cc3)C2=O)c1OC | -13.4% |
| CC(=O)c1ccc(NC(=O)CCS(=O)(=O)c2ccc3c(c2)n(C)c(=O)c(=O)n3C)cc1 | 16.5% |
| COC(=O)C(CCCCN1C(=O)C2C3C=CC(C3)C2C1=O)N1C(=O)C2C3C=CC(C3)C2C1=O (stereo not drawn) | 9.55% |
| CN1CCC(=NNC(=O)C(=O)NC(C)(C)C)CC1 | 3.61% |
| C(=NCCCN1CCOCC1)c1ccc2c(c1)OCO2 | 15.7% |
| COc1ccc(CNCc2ccc3c(c2)OCO3)cc1Br.O=C(O)C(=O)O | -23.1% |
| COc1ccc(C2c3c(ncn(CCN4CCOCC4)c3=N)Oc3ccc4ccccc4c32)cc1OC (stereo not drawn) | -16.6% |
| CC(C)(C)c1csc(N/N=C/c2cccnc2)n1 | -17.6% |
| O=C(COc1ccc2ccccc2c1)N/N=C/C1CC=CCC1 (stereo not drawn) | 1.93% |
| O=C(C1CCCN(c2ncnc3c2nc2n3CCCCC2)C1)N1CCN(c2cccc(Cl)c2)CC1 (stereo not drawn) | -72.8% |
| O=C(c1cc2ccccc2cc1O)N1CCN(c2ccccc2O)CC1 | -16.5% |
| CCOC(=O)CSc1nc2c(cnn2-c2ccc(F)cc2)c(=O)[nH]1 | 20.8% |
| COc1ccc(-n2c3c(c(=O)[nH]c2=O)C(C(F)(F)F)(C(F)(F)F)N=C(CC(C)C)N3)cc1 | -1.7% |
| O=C(COc1ccc2c(c1)oc(=O)c1ccccc12)NCCCN1CCOCC1 | -15% |
| COc1ccc(CC(=O)N/N=C(\C)c2ccccn2)cc1 | 15.5% |
| CN(CC(=O)NCCc1ccc(S(N)(=O)=O)cc1)c1ccccc1 | 4.43% |
| O=C(CN1C(=O)/C(=C\c2cccc(Cl)c2)Oc2ccccc21)N1CCN(c2ccccn2)CC1 | 19.8% |
| O=C(Nn1c(=O)[nH]c2ccsc2c1=O)c1ccccc1 | 23.9% |
| O=c1c(C(c2ccc(Cl)cc2)c2c(O)nc3n(c2=O)CCS3)c(O)nc2n1CCS2 | 13.8% |
| COc1ccc(NP(=O)(Oc2cccc(C)c2)Oc2cccc(C)c2)cc1OC | 14.4% |
| COc1cccc(NC2=NCC(=O)N2Cc2cccs2)c1.Cl | 12.3% |

| SMILES | hERG current change (%, negative = inhibition) at 10uM |
| --- | --- |
| CCC(C)(C)NC(=O)C(c1ccccn1)N(C(=O)c1csnn1)c1ccccc1 (stereo not drawn) | 5.39% |
| O=C1COc2ccc(C(=O)COC(=O)CNC(=O)C3CCCCC3)cc2N1 | -7.17% |
| O=C(COc1ccc2c3c(c(=O)oc2c1)CCC3)N[C@@H](Cc1ccccc1)C(=O)O | 16.6% |
| O=C(NCCCn1ccnc1)c1cccc(S(=O)(=O)NCc2ccccc2)c1 | -7.03% |
| Cn1cncc1C#Cc1ccc2cc(C3(O)CCCCC3)oc(=O)c2c1 | 9.66% |
| O=C(N/N=C/c1ccc(O)cc1)c1cc(-c2ccc3c(c2)OCO3)n[nH]1 | 8.33% |
| O=C(NC1CC1)C1=C[C@H](c2ccccc2)C[C@H](OCc2ccc(CO)cc2)O1 | -19.9% |
| COc1ccc(CCNC(=O)C2CC(=O)N(CCc3ccc(C)cc3)C2)cc1OC (stereo not drawn) | -14.9% |
| Cc1ccccc1SC1CCN(C(=O)C2CCC(=O)N(C3CC3)C2)CC1 (stereo not drawn) | -3.61% |
| Cc1cc(C)c2oc(C(=O)NC3CCS(=O)(=O)C3)cc(=O)c2c1 (stereo not drawn) | -17.6% |
| Cc1ccc(C(=O)N/N=C2/NC(=O)CC(C(=O)Nc3ccccc3)S2)cc1 (stereo not drawn) | -3.81% |
| CCc1ccc(Nc2n[n+](-c3ccccc3)c(/C=C/c3ccccc3)s2)cc1.[Cl-] | -69% |
| O=Nc1c(O)n(Cc2cccc(C(F)(F)F)c2)c2ccccc12 | 0.334% |
| CCOC(=O)C(=CNNc1ccsc1C(=O)OC)C(=O)OCC | 8.87% |
| C=CCNC(=O)CSc1nnc(-c2ccc(S(=O)(=O)N3CCCC3)cc2)n1C | 12.3% |
| C=C(C)Cn1c(SCC(=O)N/N=C/c2ccccc2OCC(=O)O)nnc1-c1ccc(Br)cc1 | 6.46% |
| CCc1cc(/C(Cc2ccccn2)=N\Nc2ccccc2)c(O)cc1O | 14.9% |
| N#C/C(=N\Nc1ccccc1)C(=N)N1CCOCC1 | -7.71% |
| O=[N+]([O-])c1ccc(/C=N/N2CCN(Cc3ccccc3)CC2)cc1 | -56.3% |
| Cc1nc(-c2ccc(NC(=O)c3ccccc3)cc2)cs1 | 3.65% |
| CN(C)c1ccc(/C=C/c2ccc3ccccc3[n+]2C)cc1.[I-] | -59.9% |
